The list shows a part of the results.
What follows are sequences tested on PfHDP1 homeodomain (GST-tagged) (assay: gcPBM binding intensity (ln(normalized median fluorescence intensity)); higher = stronger DNA binding).
Outline: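 An Agilent 4 × 180k array of primer-extended double-stranded 36-bp intergenic genomic probes, with negative controls, was incubated for 1 h with GST-tagged P. falciparum DNA-binding domains expressed in E. coli. Alexa488 anti-GST antibody detected bound protein, scanned at 488 nm. Binding intensity is the highest Masliner-normalised natural-log median intensity across replicate spots of either probe orientation.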

Row | Sequence | gcPBM binding intensity (ln)
1 | TTCATTATTATTAACATACACACGTGTTATATACAC [CACACA_site4112] | 7.16
2 | TTCATTTTTTAAGCATCACACACGAAAGAACAAAGT [CACACA_site1122] | 7.22
3 | TTTACATCCAAAAACTGTACACTTATTTTATAATTC [XGTACX_site5332] | 6.6
4 | ATCAAAAATATAAAAAATATAAACAATTTATTATCA [CACACA_negctrl_site768] | 6
5 | ATATATATAATATGTAGTACTTTCCTCTCAAATCAT [XGTACX_site7766] | 6.53
6 | AATAAGTAACAAAATACACACATATATATAATTATA [CACACA_site1837] | 6.67
7 | GAATCATATTTAAACACACATACATATATATATATA [CACACA_site3352] | 9.22
8 | AGTATATCAAAATACATACACACATTTGTATATACA [CACACA_site2697] | 6.46
9 | TTTTTTTTTTTTTTTTGTACACAAATTTATTGTCTA [XGTACX_site2680] | 6.22
10 | GTCCTCATCCACTATGCACACAAAAAAGAAATACAC [CACACA_site9131] | 10.5
11 | TACGTTATGTTGAATAGTACAATTTGGTGAACAGGT [XGTACX_site1729] | 7.06
12 | TTTCCAAATTGTTGACGGACACTCACGAATAGTTAT [XGTACX_site5720] | 6.27
13 | CATATGTATATGACTACACACAAGGGTGTACATATA [CACACA_site1164] | 6.35
14 | ACATGAAGATATTTTTGTCCGTACAAATTCATATGA [XGTACX_site1837] | 6.23
15 | TCATTTCAATACACAAGTACGTATATGGTTATATTG [XGTACX_site6021] | 6.52
16 | AATATAAAATAATGCACACATAAACAAAAAATCAAA [CACACA_site1371] | 10.4
17 | ATTCTATATATGTGCACACAAAAGATATATATATAT [CACACA_site2124] | 11.4
18 | TTACATGTACAAAAGTTGCACTTCATACACTTTTAT | 8.83
19 | TCATTTTATTATTCTACACACTTATCTATAATTACA [CACACA_site6168] | 6.66
20 | CGAAGGTTTGGCCATGCATGTTATAAGAATATATGT [TGCATGCA_site441] | 6.57
21 | AAAATTAAAAATTACTGTACGTATTAGAGAATAAAT [XGTACX_site2567] | 6.33
22 | AAAAAATATTGAAGTACACACATTATAAACTTTTTT [CACACA_site5029] | 6.28

Row | Sequence | gcPBM binding intensity (ln)
23 | ACCTAATTCAAATACAGTACATATACAATATATATA [XGTACX_site2779] | 6.69
24 | AAAATATTAATTAATACATGCATATATATATATATA [TGCATGCA_site585] | 9.3
25 | TATATTGTATAAAAATGTACATGCAATAAATTTAGT [XGTACX_site5621] | 7.32
26 | TACATTAACGGATTATTTCTCAATACAACATCATTT [CACACA_negctrl_site981] | 6.27
27 | GTTTGTATGTCCAAATGTACATATGATTTTATGAAA [XGTACX_site6595] | 6.53
28 | TATATTATAATAAGACGTACAAGGATGTTAAAACTT [XGTACX_site5828] | 6.59
29 | TTAATTATGGACAGGGTGCACATGAATAATAATACC | 9.71
30 | ATGTTTTATATTTTTTTTTTGTTTGCTTGTTTCCTC [CACACA_negctrl_site870] | 6.61
31 | AAGGGAAATATTGAAACACACACGAACCCACGTATT [CACACA_site252] | 6.35
32 | ATACTAAATGAACACACACACATATATATATATAAT [CACACA_site4232] | 6.86
33 | AACAGACATAGAAACACACATACATACATACATACA [CACACA_site2479] | 7.76
34 | AAATAAATATATAATACACACAAAAATATAAAATGG [CACACA_site5943] | 6.96
35 | TATAACTTTTTTATTACACACCTATGTAATATTATA [CACACA_site944] | 6.61
36 | ATAGTATACAGACACACACACACACCCATATATATA [CACACA_site1736] | 7.1
37 | AGGATATAAATATTCACACACACATGGAGATATATA [CACACA_site6317] | 6.41
38 | TTATAATATTAATGTGCACACAATTAAAATATTATA [CACACA_site2046] | 10.7
39 | TACTGTGTTTTGGTTGTACACACGCTACATTATATA [CACACA_site8863] | 7.26
40 | TTCTTAAATGTAAATGTATATGTATTAAAAAGAGAA [TGCATGCA_negctrl_site597] | 6.64
41 | GTTAAGGGTATATATACACACATATGTAATACATGA [CACACA_site5650] | 6.93
42 | TCCATCCACATATATGTACACACATATATATATATA [CACACA_site8970] | 9.23
43 | TATACATTTATGTACACACACATATATGTATATTTA [CACACA_site2966] | 6.33
44 | AATAAATATCAATACACACACACAAAAGTGAATAAA [CACACA_site3763] | 6.88

— the supplement of paper PMC11417369
